# Article PMC4336329 (PLoS ONE, 2015)
# Among all 310,000 compounds or so, about 14,000 (4.5%) showed an effect of 50% or more. Effects have a minus sign here. Some of the results follow.
# Target: human ether-à-go-go-related gene (hERG) potassium channel (human, UniProt Q12809)
# Experiment: primary screen, population patch clamp on CHO cells stably expressing hERG
# 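Note: peak tail current of the secondary pulse compared with the same well before compound.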
# Chain of human ether-à-go-go-related gene (hERG) potassium channel (Q12809 whole entry, looked up): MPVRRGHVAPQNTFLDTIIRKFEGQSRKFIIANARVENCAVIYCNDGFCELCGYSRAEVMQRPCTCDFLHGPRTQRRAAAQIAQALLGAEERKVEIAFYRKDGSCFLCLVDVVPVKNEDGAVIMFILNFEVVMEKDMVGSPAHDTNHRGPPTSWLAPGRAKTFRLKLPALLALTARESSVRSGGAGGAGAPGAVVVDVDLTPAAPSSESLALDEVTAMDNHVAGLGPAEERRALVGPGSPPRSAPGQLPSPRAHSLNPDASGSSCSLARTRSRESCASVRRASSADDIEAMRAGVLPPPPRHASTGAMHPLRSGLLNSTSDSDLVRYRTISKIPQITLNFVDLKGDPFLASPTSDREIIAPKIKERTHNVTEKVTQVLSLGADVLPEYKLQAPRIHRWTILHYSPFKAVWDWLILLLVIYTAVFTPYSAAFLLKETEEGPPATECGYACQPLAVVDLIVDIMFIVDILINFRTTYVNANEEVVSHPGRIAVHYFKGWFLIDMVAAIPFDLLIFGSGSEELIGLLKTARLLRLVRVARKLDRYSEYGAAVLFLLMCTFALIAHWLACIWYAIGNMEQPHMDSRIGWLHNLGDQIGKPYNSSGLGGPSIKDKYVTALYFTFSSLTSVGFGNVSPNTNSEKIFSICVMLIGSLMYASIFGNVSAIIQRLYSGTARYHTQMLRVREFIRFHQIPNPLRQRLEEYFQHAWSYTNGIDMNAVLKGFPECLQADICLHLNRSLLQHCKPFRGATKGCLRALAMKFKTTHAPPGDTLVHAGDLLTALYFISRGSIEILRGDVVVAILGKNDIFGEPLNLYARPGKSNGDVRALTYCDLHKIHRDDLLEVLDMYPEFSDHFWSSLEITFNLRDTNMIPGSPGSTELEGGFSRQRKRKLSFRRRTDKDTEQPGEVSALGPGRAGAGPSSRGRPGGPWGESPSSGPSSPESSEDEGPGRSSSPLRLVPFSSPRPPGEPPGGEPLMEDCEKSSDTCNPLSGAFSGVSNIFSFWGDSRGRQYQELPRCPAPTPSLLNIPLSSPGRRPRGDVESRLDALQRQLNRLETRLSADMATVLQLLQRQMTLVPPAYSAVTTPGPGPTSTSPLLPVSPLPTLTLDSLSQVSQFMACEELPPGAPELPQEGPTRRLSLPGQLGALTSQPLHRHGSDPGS
row,Compound,"hERG current change (%, negative = inhibition) at 10uM"
1,COc1ccc([N+](=O)[O-])cc1NC(=O)c1ccc(N(Cc2ccccc2C)S(C)(=O)=O)cc1,-10.8%
2,O=C(CN1CCN(Cc2ccccc2)CC1)Nc1ccc(Cl)cn1,-74.5%
3,O=C(Cc1cccs1)Nc1ccccn1,23.1%
4,COc1ccccc1/C=C/C(=O)NCC(=O)N/N=C(\CCC(=O)O)c1ccccc1,6%
5,Cc1ccc(C(=O)OCC(=O)N2CC(C)CC(C)C2)cc1S(=O)(=O)N1CCOCC1 (centres unmarked),-14.5%
6,CC(C)(C)c1ccc(/C=C2\SC(=O)N=C2N)cc1,24.4%
7,Cc1ccc2nc3ccc(N4CCCC4)nn3c(=O)c2c1,-8.29%
8,O=S(=O)(c1ccc2oc3ccccc3c2c1)N1CCOCC1,-17.7%
9,Cc1cccnc1CN1CCN(Cc2nc(C(c3ccccc3)c3ccccc3)no2)CC1,-56.2%
10,CCOc1ccc2nc(NC(=O)C3CCCN(S(=O)(=O)c4cccs4)C3)sc2c1 (centres unmarked),-4.06%
11,COC(=O)c1ccc(C(c2c(N)n(CC(C)C)c(=O)[nH]c2=O)N2CCN(c3ccccc3)CC2)cc1 (centres unmarked),-8.97%
12,O=C(N/N=C/C=C\c1ccccc1[N+](=O)[O-])c1ccncc1,-1.32%
13,CCc1nnc(NC(=O)CCC(=O)N2CCN(Cc3ccc(Cl)cc3)CC2)s1,-14.6%
14,COc1ccc(OCC(=O)Nc2ccc3oc(-c4ccncc4)nc3c2)cc1,-10.6%
15,O=C(Nc1ccccc1-c1nc2ccccc2s1)c1ccco1,-1.74%
16,COc1cc(C2C(C(=O)c3ccco3)=C(O)C(=O)N2Cc2cccnc2)cc(OC)c1OC (centres unmarked),17.7%
17,COc1cccc(C(=O)Nc2nnc(S(=O)(=O)Nc3cccc(C)c3)s2)c1,-1.2%
18,Cc1cc(NC(=O)COC(=O)CCC(=O)c2ccc(F)cc2)no1,0.704%
19,COc1ccccc1NC(=O)c1ccc(-n2cccn2)c([N+](=O)[O-])c1,-14.8%
20,O=C(CSc1nc2c(c(C(F)(F)F)n1)CCc1ccccc1-2)NCc1ccco1,2.99%
21,CC(C)(C)CC(=O)Nc1ccc(C(N)=O)cc1,-2.38%
22,COCCNC(=S)N1CCc2cc(OC)c(OC)cc2C1COc1ccc(C(C)C)cc1 (centres unmarked),16.7%

row,Compound,"hERG current change (%, negative = inhibition) at 10uM"
1,CCn1c2ccccc2n2c(=O)c(=O)n(CC(=O)N3CCN(c4ccccc4OC)CC3)nc12,4.96%
2,COc1ccc(C2/C=C\CN(C(=O)CC(C)(C)C)CC(=O)N2Cc2ccc(F)cc2)cc1 (centres unmarked),-13.6%
3,Cc1cccc(N(CC(=O)NCc2ccccc2)C(=O)CCC(=O)Nc2nccs2)c1,5.32%
4,COc1cc(/C=N/O)ccc1OCc1ccc(C(=O)O)cc1,-1.94%
5,Brc1ccc(CN2CCN(c3ccccc3)CC2)o1,13.8%
6,C/C(=N\OC(=O)c1ccc(Cl)c(Cl)c1)c1sc(C)nc1C,-10.7%
7,COc1ccc(Cl)cc1S(=O)(=O)N1CCC(C(=O)NCc2ccco2)CC1,-14.2%
8,Cc1cccc(N(C(=O)CNC(=O)c2ccco2)C(C(=O)NC2CCCC2)c2ccncc2)c1C (centres unmarked),3.64%
9,Cc1nc2c(C)cccn2c1/C(O)=C1\C(=O)C(=O)N(CCN(C)C)C1c1ccco1 (centres unmarked),14%
10,CC(=O)c1ccc(NC(=S)N2CCC(Cc3ccccc3)CC2)cc1,4.22%
11,Cc1ccc2c(c1)nnn2C1CCN(CC(=O)NCCc2nc3ccccc3[nH]2)CC1,-27.9%
12,COc1ccccc1C(=O)N/C(=C\c1ccc(Br)cc1)C(=O)N1CCCC1,-48.6%
13,Cc1ccc(S(=O)(=O)Nc2nc(C)c(C(=O)NNS(=O)(=O)c3ccccc3)s2)cc1,7.31%
14,CN(CC(=O)Nc1ccc(F)c(F)c1)S(=O)(=O)c1cccc2nsnc12,-26.1%
15,COc1ccccc1N1CCN(C(=O)CCC(=O)N2CCN(c3ccccc3OC)CC2)CC1,8.6%
16,CCOc1c(CNc2nnnn2C)cccc1OC,15.2%
17,COc1cccc2cc(C(N)=O)/c(=N\NC(=O)c3ccccc3)oc12,6.15%
18,C=CCN(CC#CCOc1ccccc1OC)CC=C.O=C(O)C(=O)O,2.08%
19,COc1ccc(OCC(=O)N/N=C(\C)c2cccs2)cc1,9.45%
20,NC(=O)NC(CC(=O)NCc1ccc2c(c1)OCO2)c1ccccc1Cl (centres unmarked),16.7%
21,Cc1ccc(C)c(NC(=O)c2ccc(OCc3c(C)noc3C)cc2)c1,-0.266%
22,CCCCC(=O)Nc1ccccc1C#N,4.77%

row,Compound,"hERG current change (%, negative = inhibition) at 10uM"
1,COc1ccc(Nc2nc(NCC3CCCO3)nc(N)c2[N+](=O)[O-])cc1 (centres unmarked),-8.31%
2,Cc1nn(-c2ccccc2)c(C)c1/C=N/NC(=O)CSc1nc2ccccc2c(=O)n1-c1ccccc1,6.86%
3,Cc1ccc(-c2nn(-c3ccccc3)cc2/C=N/NC(=O)c2ccncc2)o1,1.47%
4,CC1(C)Cc2c(sc3nc(SCC(=O)NCc4ccccc4)n(-c4ccccc4)c(=O)c23)CS1,7.62%
5,CC(Oc1ccc(Cl)cc1)C(=O)N/N=C/c1ccsc1 (centres unmarked),4.59%
6,O=C(/C=C/c1ccccc1)Nc1nc(-c2ccncc2)cs1,3.68%
7,CCc1ccc(NC(=O)Cc2ccc(OC)cc2)cc1,0.00588%
8,CCCC12C(=O)C(C)(C(c3ccccc3)=C1c1ccccc1)C1C(=O)N(c3ccc(C)cc3)C(=O)C12 (centres unmarked),4.22%
9,Cc1cccc(NC(=O)CSc2ccc(-c3ccco3)nn2)c1,-59.5%
10,Cc1nnsc1C(=O)NNC(=O)Nc1ccccc1,12.3%
11,O=C(OC1CCOC1=O)c1ccc(CO)cc1 (centres unmarked),27.4%
12,CCOc1ccc(C(=O)Nc2ncccc2Cl)cc1.Cl,7.67%
13,CCOc1ccc(CN(C(=O)c2cccs2)C2CCS(=O)(=O)C2)cc1 (centres unmarked),-13.6%
14,CSc1ccccc1C(=O)N1CCCCC1,-9.98%
15,O=C(Nc1ccc(N2CCCC2)cc1)c1cccc(-c2cc3ccccc3oc2=O)c1,17.8%
16,COc1ccc(-c2c(C(C)=O)c(C)nc3sc4c(=N)n(N)cnc4c23)cc1,3.48%
17,COc1cc(/C=N/NC(=O)CNS(=O)(=O)c2ccc(C)cc2)cc(OC)c1OC,12.1%
18,Cc1c(Cl)c([N+](=O)[O-])nn1CC(=O)NC(C)c1ccccc1 (centres unmarked),9.4%
19,CN(C)c1nc(Cl)nc(NCCOc2ccccc2)n1,9.52%
20,O=C(O)C(=O)O.OC(CNC1CCCCCCC1)c1ccccc1 (centres unmarked),2.95%
21,CCOc1ccc(CCNC(=O)C2CCN(c3nn4c(=O)cc(C)nc4s3)CC2)cc1,-23.3%
22,CC(=O)Nc1ccc(NC(=S)NC(=O)c2cc3ccccc3o2)cc1,8.36%

row,Compound,"hERG current change (%, negative = inhibition) at 10uM"
1,COc1ccc(-c2[nH]ncc2CN(C)Cc2ccccn2)c(OC)c1,-10.2%
2,COc1ccc(C)cc1NC(=O)CSc1nnc(-c2cc3cccc(OC)c3o2)n1N,21.9%
3,CCOC(=O)c1c(NC(NC(C)=O)C(Cl)(Cl)Cl)sc(C(C)=O)c1C (centres unmarked),-11.1%
4,COc1cc(S(=O)(=O)NC2CCSc3ccccc32)ccc1NC(C)=O (centres unmarked),21.7%
5,Fc1cccc(Cl)c1CSc1nnc2ccccn12,9.48%
6,Cc1cccnc1NC1OC(=O)c2ccccc21 (centres unmarked),3.66%
7,COc1ccc(CCC(=O)Nc2ccc(S(=O)(=O)N3CCCC3)cc2)cc1OC,-11.8%
8,CC1CCN(C(=O)CSc2nnc(N)s2)CC1,29.8%
9,CCCn1c(N)[n+](CC(=O)c2ccco2)c2ccccc21.[Br-],-11.1%
10,Cc1ccccc1-n1c(CSC(=N)N)nc2ccccc2c1=O.Cl,-17.1%
11,Cc1cccc(SC2CCN(Cc3nc(CC4CC4)no3)CC2)c1,-17.9%
12,CC1(C)S[C@@H]2[C@H](NC(=O)COc3ccccc3)C(=O)N2C1C(=O)OCC1CCCCC1 (some centres unmarked),-46%
13,COc1ccc2nc(N/C(N)=N/C(=S)Nc3ccccc3)nc(C)c2c1,15.2%
14,O=C(Cn1cnc2ccccc2c1=O)NCCC(=O)Nc1ccc(F)cc1,25.4%
15,COC(=O)c1ccc(/C=C2\Oc3ccccc3NC2=O)cc1,15.5%
16,COc1ccc(OCc2nnc(SCC(=O)Nc3ccccc3F)o2)cc1,14.9%
17,O=C(CSc1nc2ccccc2c(=O)[nH]1)c1ccc(O)c(O)c1,-4.84%
18,O=C(CSc1nnc(-c2cccnc2)o1)N1CCCCC1,9.4%
19,C/C(CC(=O)NCc1ccc(Cl)cc1)=N\NC(=O)c1ccccc1F,-19.5%
20,CC(=O)c1ccc(-c2cccc(-c3nc4ccccn4c3NC3CCCCC3)c2)cc1.O=C(O)C(F)(F)F,4.12%
